For six molecules, EC50 results are on record in patent US20170043031A1, “IGF-1R ANTIBODY-DRUG-CONJUGATE AND ITS USE FOR THE TREATMENT OF CANCER” (PIERRE FABRE MEDICAMENT, priority 2014, published 2017).

Experiment [1] has as its target T1, IGF-1R on MCF-7 cells (Homo sapiens, UniProt P08069).
T1 construct: all generated antibodies are capable to recognize the native IGF-1R form; host or cells: MCF-7
The experiment can be described thus: IGF-1R internalization by FACS on MCF-7 cells (4° C. vs 37° C., 4 h). The class given is cell-based. As to conditions: MCF-7, chimeric antibodies; read-out: ΔMFI_EC50. The method, then: (§1) MCF-7 cells were incubated with 10 μg/ml of chimeric antibodies at 4° C. for 20 min. Then, cells were washed and incubated at 4° C. or 37° C. for 4 h. The quantity of cell-surface bound antibody was determined using a secondary antibody. The ΔMFI defined as the difference between MFI measured at 4° C. and MFI measured at 37° C. after a 4 hour incubation time corresponded to the quantity of internalized Ab. The percentage of internalization at 10 μg/ml of Ab were calculated as followed 100*(MFI at 4° C.−MFI at 37° C.)/MFI at 4° C. and presented in Table 11.
as §1, with “The capacity of the mAb hz208F2 VH3NL3 to be internalized was assessed by flow cytometry. MCF-7” for “MCF-7”, “of” for “of chimeric”, “13.” for “11.”
as §1, with “of humanized” for “of chimeric”, “secondary antibody on a FacsCalibur Flow cytometer (Becton Dickinson).” for “secondary antibody.”, “Ab was” for “Ab were”, “C. The humanized antibody hz208F2 H077/L018 is able to induce a significant internalization of IGF-1R.” for “C. and presented in Table 11.”
Background: Flow cytometry measures light scatter and fluorescence of single cells or particles in a stream.

Experiment [2] addresses T2, human native IGF-1R on MCF-7 cell line (Homo sapiens, UniProt P08069).
T2 construct: all generated antibodies are capable to recognize the native IGF-1R form; host or cells: MCF-7
The experiment can be described thus: FACS titration on MCF-7 cell line. As to conditions: humanized variants, binding. The method, then:
The five murine IGF-1R antibodies were chimerized. The binding properties of both the murine and the chimeric IGF-1R antibodies were evaluated by FACS analyses on the human MCF-7 breast adenocarcinoma cell line (ATCC#HTB-22) using increasing antibody concentrations. For that purpose, cells (1×10^6 cells/ml) were incubated with IGF-1R antibodies for 20 min. at 4° C. in FACS buffer (PBS, 0.1% BSA, 0.01% NaN3). They were then washed 3 times and incubated with the appropriate secondary antibody coupled with Alexa 488 for 20 additional minutes at 4° C. in the dark before being washed 3 times in FACS buffer. The binding of anti-IGF-1R antibodies was immediately performed on viable cells which were identified using propidium iodide (that stains dead cells). The maximum of signal intensity obtained with each antibody was designed as Bmax and expressed in mean of fluorescence intensity (MFI). The EC50 of binding expressed in molarity (M) was calculated using a nonlinear regression analysis (GraphPad Prims 4.0).
The binding properties of the humanized variants were evaluated by FACS analyses on the human MCF-7 breast adenocarcinoma cell line and the monkey cell line Cos-7 using increasing antibody concentrations. […] The EC50 of binding expressed in molarity (M) was calculated using a nonlinear regression analysis (GraphPad Prims 4.0).

B1: c212A11: chimeric 212A11 antibody, heavy chain SEQ ID No. 24, light chain SEQ ID No. 29 (antibody)
heavy: QVQLQQSGPELVKPGASVKMSCKASGYTFTSYYIHWVKQRPGQGLEWIGWIWPGDGSTKYNEKFKGKTTLTADKSSSTAYMFLSSLTSEDSAVYFCASPMITPNYAMDYWGQGASVTVSSASTKGPSVFPLAPSSKSTSGGTAALGCLVKDYFPEPVTVSWNSGALTSGVHTFPAVLQSSGLYSLSSVVTVPSSSLGTQTYICNVNHKPSNTKVDKRV[human IgG1 Fc not written out]
light: DIQMTQTTSSLSASLGDRVTISCRASQDINKYLNWYQQQPDGTVKLLIYYTSRLHSGVPSRFSGRGSGTDYSLTISNLEQEDIATYFCQQGSTLPYTFGGGTKLEIKRTVAAPSVFIFPPSDEQLKSGTASVVCLLNNFYPREAKVQWKVDNALQSGNSQESVTEQDSKDSTYSLSSTLTLSKADYEKHKVYACEVTHQGLSSPVTKSFNRGEC
modifications: c212A11, heavy chain, full length; c212A11, light chain, full length
For the molecule B1, the EC50 in experiment [1] was 0.27 nM.

B2: c213B10: chimeric 213B10 antibody, heavy chain SEQ ID No. 27, light chain SEQ ID No. 32 (antibody)
heavy: QVQLQQSGSELVKPGASVKMSCKASGYTFTSYYIHWVKQRPGQGLEWIGWIWPGDGSTKYNERFKGKTTLTADKSSSTAYMFLSSLTSEDSAVYFCASPMITPNYAMDYWGQGASVTVSSASTKGPSVFPLAPSSKSTSGGTAALGCLVKDYFPEPVTVSWNSGALTSGVHTFPAVLQSSGLYSLSSVVTVPSSSLGTQTYICNVNHKPSNTKVDKRV[human IgG1 Fc not written out]
light: DIQMTQTTSSLSASLGDRVTISCRASQDISKYLNWYQQQPDGTIKLLIYYTSRLHSGVPSRFSGRGSGTDYSLTITNLEQEDIATYFCQQGSALPYTFGGGTKLEIKRTVAAPSVFIFPPSDEQLKSGTASVVCLLNNFYPREAKVQWKVDNALQSGNSQESVTEQDSKDSTYSLSSTLTLSKADYEKHKVYACEVTHQGLSSPVTKSFNRGEC
modifications: c213B10, heavy chain, full length; c213B10, light chain, full length
Take B2: the EC50 in experiment [1] is 0.23 nM.

B3: c214F8: chimeric 214F8 antibody, heavy chain SEQ ID No. 25, light chain SEQ ID No. 30 (antibody)
heavy: QVQLQQSGSELVKPGASVKLSCKASGYTFTSYYIHWVKQRPGQGLEWIGWIWPGDGSTKYNERFKGKTTLTADKSSSTAYMFLSSLTSEDSAVYFCASPMITPNYAMDYWGQGASVTVSSASTKGPSVFPLAPSSKSTSGGTAALGCLVKDYFPEPVTVSWNSGALTSGVHTFPAVLQSSGLYSLSSVVTVPSSSLGTQTYICNVNHKPSNTKVDKRV[human IgG1 Fc not written out]
light: DIQMTQTTSSLSASLGDRVTFSCRASQDISKYLNWYQQQPDGTIKLLIYYTSRLHSGVPSRFSGRGSGTDYSLTITNLEQEDIATYFCQQGSALPYTFGGGTKLEIKRTVAAPSVFIFPPSDEQLKSGTASVVCLLNNFYPREAKVQWKVDNALQSGNSQESVTEQDSKDSTYSLSSTLTLSKADYEKHKVYACEVTHQGLSSPVTKSFNRGEC
modifications: c214F8, heavy chain, full length; c214F8, light chain, full length
For B3, the EC50 in experiment [1] was determined as 0.22 nM.

B4: c219D6: chimeric 219D6 antibody, heavy chain SEQ ID No. 26, light chain SEQ ID No. 31 (antibody)
heavy: QVQLQQSGPELVKPGDSVKMSCKASGYSFTSYFIHWVKQRPGQGLEWIGWIWPGDGSTKYNEKFKGKTTLTTDKSSSTAYMFLNSLTSEDSAVYFCASPMITPNYAMDYWGQGASVTVSSASTKGPSVFPLAPSSKSTSGGTAALGCLVKDYFPEPVTVSWNSGALTSGVHTFPAVLQSSGLYSLSSVVTVPSSSLGTQTYICNVNHKPSNTKVDKRV[human IgG1 Fc not written out]
light: DIQMTQTTSSLSASLGDRVTISCRASQDISKYLNWYQQQPDGTVKLLIYYTSRLHSGVPSRFSGRGSGTDYSLTISNLEQEDIATYFCQQGSTLPYTFGGGTKLEIKRTVAAPSVFIFPPSDEQLKSGTASVVCLLNNFYPREAKVQWKVDNALQSGNSQESVTEQDSKDSTYSLSSTLTLSKADYEKHKVYACEVTHQGLSSPVTKSFNRGEC
modifications: c219D6, heavy chain, full length; c219D6, light chain, full length
For B4, the EC50 in experiment [1] was found to be 0.44 nM.

B5: hz208F2 H049/L021: humanized 208F2 variant, heavy chain SEQ ID No. 65, light chain SEQ ID No. 61 (antibody)
heavy: QVQLVQSGAEVKKPGASVKVSCKASGYTFTSYYMHWVRQAPGQGLEWMGWIWPGDGSTKYAQKFQGRVTMTRDKSSSTVYMELSSLRSEDTAVYYCASPMITPNYAMDYWGQGTLVTVSSASTKGPSVFPLAPSSKSTSGGTAALGCLVKDYFPEPVTVSWNSGALTSGVHTFPAVLQSSGLYSLSSVVTVPSSSLGTQTYICNVNHKPSNTKVDKRV[human IgG1 Fc not written out]
light: DIQMTQSPSSLSASVGDRVTITCRASQDISKYLNWYQQKPGKAPKLLIYYTSRLHSGVPSRFSGRGSGTDFSLTISSLQPEDFATYFCQQGSTLPYTFGGGTKVEIKRTVAAPSVFIFPPSDEQLKSGTASVVCLLNNFYPREAKVQWKVDNALQSGNSQESVTEQDSKDSTYSLSSTLTLSKADYEKHKVYACEVTHQGLSSPVTKSFNRGEC
modifications: hz208F2 heavy chain H049 full length; hz208F2 light chain L021 full length
As for B5, the EC50 in experiment [2] came to 0.66 nM.

B6: hz208F2 H076/L021: humanized 208F2 variant, heavy chain SEQ ID No. 79, light chain SEQ ID No. 61 (antibody)
heavy: QVQLVQSGAEVKKPGASVKVSCKASGYTFTSYYIHWVRQAPGQGLEWMGWIWPGDGSTKYAQKFQGRVTMTRDTSTSTVYMELSSLRSEDTAVYYCASPMITPNYAMDYWGQGTLVTVSSASTKGPSVFPLAPSSKSTSGGTAALGCLVKDYFPEPVTVSWNSGALTSGVHTFPAVLQSSGLYSLSSVVTVPSSSLGTQTYICNVNHKPSNTKVDKRV[human IgG1 Fc not written out]
light: DIQMTQSPSSLSASVGDRVTITCRASQDISKYLNWYQQKPGKAPKLLIYYTSRLHSGVPSRFSGRGSGTDFSLTISSLQPEDFATYFCQQGSTLPYTFGGGTKVEIKRTVAAPSVFIFPPSDEQLKSGTASVVCLLNNFYPREAKVQWKVDNALQSGNSQESVTEQDSKDSTYSLSSTLTLSKADYEKHKVYACEVTHQGLSSPVTKSFNRGEC
modifications: hz208F2 heavy chain H076 full length; hz208F2 light chain L021 full length
In experiment [2], B6 yielded an EC50 of 0.58 nM.
